Laboratory results as given in PubChem BioAssay AID504339 (National Center for Advancing Translational Sciences (NCATS), 2011).
The whole screen tested about 390,000 compounds, of which about 17,000 (4.4%) were called active. Inconclusive means that the source gave no clear call. Such entries were picked first, then a sample of the others. Calls follow the shape of the dose curve; as a rule, active = well fitted inhibition curve with a large enough effect; inconclusive = small, poorly fitted or top-dose-only effect; inactive = no such curve, though single readings can be large or run the other way. Where the call is inconclusive, the potency comes from a doubtful curve fit.

What follows are compounds tested against Lysine-specific demethylase 4A (Homo sapiens) (UniProt O75164) (assay: qHTS Assay for Inhibitors of JMJD2A-Tudor Domain). Details: AlphaScreen JMJD2A-Tudor / H3K4me3 peptide binding; series mostly up to 114 µM.
Also: nearly all actives have a fitted effect of over 50% in size.
Potency is read from the fitted curve at half-maximal effect; tags tell the direction and shape of the fitted curve.

Chain of UniProt O75164 (O75164 whole entry, looked up, the tested form may be a part): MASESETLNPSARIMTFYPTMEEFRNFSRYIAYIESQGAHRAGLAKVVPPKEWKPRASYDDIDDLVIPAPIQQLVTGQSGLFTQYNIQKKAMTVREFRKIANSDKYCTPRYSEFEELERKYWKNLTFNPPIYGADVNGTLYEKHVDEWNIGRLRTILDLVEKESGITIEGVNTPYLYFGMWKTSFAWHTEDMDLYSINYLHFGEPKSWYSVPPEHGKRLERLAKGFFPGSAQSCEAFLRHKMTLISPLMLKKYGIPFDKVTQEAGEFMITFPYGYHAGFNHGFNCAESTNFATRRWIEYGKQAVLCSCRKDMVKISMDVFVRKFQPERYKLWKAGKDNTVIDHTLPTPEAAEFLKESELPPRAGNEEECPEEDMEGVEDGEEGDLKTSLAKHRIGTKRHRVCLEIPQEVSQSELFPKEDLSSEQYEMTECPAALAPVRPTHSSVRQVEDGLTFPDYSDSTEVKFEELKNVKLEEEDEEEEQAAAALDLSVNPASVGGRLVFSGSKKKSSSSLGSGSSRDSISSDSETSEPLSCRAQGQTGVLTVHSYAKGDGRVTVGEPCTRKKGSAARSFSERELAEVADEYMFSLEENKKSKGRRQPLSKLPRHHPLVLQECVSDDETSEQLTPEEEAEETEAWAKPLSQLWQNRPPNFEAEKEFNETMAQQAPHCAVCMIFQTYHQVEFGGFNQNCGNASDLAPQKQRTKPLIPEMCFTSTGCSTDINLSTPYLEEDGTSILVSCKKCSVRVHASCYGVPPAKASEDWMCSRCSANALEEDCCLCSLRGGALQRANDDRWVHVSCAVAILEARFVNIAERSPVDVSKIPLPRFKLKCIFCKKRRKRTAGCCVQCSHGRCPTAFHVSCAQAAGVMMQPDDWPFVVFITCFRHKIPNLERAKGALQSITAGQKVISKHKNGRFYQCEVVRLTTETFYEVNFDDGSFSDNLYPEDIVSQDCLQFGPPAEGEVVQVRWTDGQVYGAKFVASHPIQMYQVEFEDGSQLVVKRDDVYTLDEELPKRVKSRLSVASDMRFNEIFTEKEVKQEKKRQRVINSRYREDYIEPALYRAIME

Structure (SMILES) | Potency
O=C(Oc1ccc2c(c1)OCO2)c1cc2c(s1)CCC2 | active: 31.6 µM
Cc1cc(C)nc(Nc2nc(=O)c3ccccc3s2)n1 | inactive
COc1cc(/C=C2\N=C(c3ccccc3)OC2=O)ccc1OC(C)=O | inactive
COc1ccc(-c2ccc3c(c2)S(=O)(=O)c2cccc(C(=O)NCc4cc(C)oc4C(F)(F)F)c2C3=O)cc1OC | inconclusive: 70.8 µM [inhibitor, single point]
Nc1cc(N)c(OCC(F)(F)F)cc1OCC(F)(F)F | inconclusive: 89.1 µM [inhibitor, partial curve]
CC(C)c1ccc(C2c3[nH]c4ccccc4c3C[C@H]3C(=O)N(c4ccccc4C(=O)N4CCC[C@H]4C(=O)O)C(=O)N23)cc1 (stereo not given in full) | inconclusive: 56.2 µM [inhibitor, partial curve]
CCCc1nnc(NC(=O)CN2CCOCC2)s1 | inconclusive: 22.4 µM [inhibitor, partial curve]
O=C(O)CCc1ccc(-c2ccc(Cl)cc2)n1-c1cccc(C(F)(F)F)c1 | inconclusive: 28.2 µM [inhibitor, partial curve]
S=C(NCC1CCCO1)Nc1ccc(Nc2ccccc2)cc1 (stereo not given) | inconclusive: 50.1 µM [inhibitor, partial curve]
CCn1c(=O)cc(OCC(=O)Nc2ccccc2Cl)c2ccccc21 | inactive
COc1ccc(/C=N/Nc2nnc(C)n2N)cc1OC(C)=O | inactive
COC(=O)c1c(-c2ccc(C(C)(C)C)cc2)csc1NC(=O)C1C2CCC(O2)C1C(=O)O (stereo not given) | inconclusive: 70.8 µM [inhibitor, single point]
Cc1ccc2[nH]c3c(=O)n(CC(=O)N(C)Cc4ccccc4)ncc3c2c1 | inactive
O=C(COn1nnc2ccc(C(F)(F)F)cc21)Nc1c(Cl)cccc1Cl | inactive
O=C(c1cc(-c2ccc(Cl)cc2)on1)N1CCCCCC1 | active: 25.1 µM
CCN(CC)CCCN(C(=O)c1ccco1)c1nc(-c2ccc(Cl)cc2)cs1 | inconclusive: 50.1 µM [inhibitor, partial curve]
CCC(=O)Nc1nc2nc(C)cc(=O)n2[nH]1 | active: 31.6 µM
CCOC(=O)C1CCN(c2cc3c(cc2NC(=O)c2cc(OC)ccc2Br)n(C)c(=O)n3C)CC1 | inconclusive: 89.1 µM [inhibitor, partial curve]
CCn1c(O)c(/C=C2\C=NN=C2c2ccc(C)cc2)sc1=S | inconclusive: 28.2 µM [inhibitor, partial curve]
COc1ccc(C(=O)N2C(=S)NC(=O)/C2=C\c2ccc(C)cc2)cc1 | active: 50.1 µM
CCOc1ccc(S(=O)(=O)Nc2ccc3c(c2)OCO3)c2cccnc12 | inconclusive: 56.2 µM [inhibitor, partial curve]
CCOC(=O)[C@H]1[C@H]2COc3ccc(C)cc3[C@@H]2N2C(=O)c3cc(Br)ccc3NC(=O)[C@@]12C | inactive
CCOC(=O)C1=C(CSc2nc(C)cc(C)c2C#N)OC(N)=C(C#N)C1c1cccs1 (stereo not given) | inconclusive: 79.4 µM [inhibitor, single point]
COC(=O)c1ccc2c(=O)n(CCO)c(=S)[nH]c2c1 | inconclusive: 100 µM [inhibitor, single point]

Structure (SMILES) | Potency
Cc1nnc(C)c2c(C)n(-c3ccccc3)c(C)c12 | inconclusive: 56.2 µM [inhibitor, partial curve]
COc1ccccc1N1CCN(Cc2cc(Br)c(O)c3ncccc23)CC1 | active: 39.8 µM
Oc1ccc(/C=N/NC(=S)Nc2cccnc2)c(O)c1O | active: 3.55 µM
O=C(CCn1cnnn1)NC1CCCN(Cc2ccccc2F)C1 (stereo not given) | inactive
Cc1ccc(NC(=O)CCCn2c(=O)c3cccn3c3ccccc32)cc1Cl | inconclusive: 39.8 µM [inhibitor, full curve, poor fit]
Oc1ccc2ccccc2c1C=NCc1cn2ccsc2n1 | inconclusive: 44.7 µM [inhibitor, partial curve]
O=C(CCc1ccccc1)Nc1ncn[nH]1 | inconclusive: 31.6 µM [inhibitor, full curve]
CCCc1[nH]nc2c1C(c1ccc(OC)c(CSC3=NCCS3)c1)C(C#N)=C(N)O2 (stereo not given) | inconclusive: 56.2 µM [inhibitor, partial curve]
Cc1ccccc1NC(=O)CSC1=Nc2ccccc2C2=NC(Cc3ccccc3)C(=O)N12 (stereo not given) | inactive
COc1ccc(N2CCN(C(=O)CCCn3c(=O)[nH]c4cc(Cl)ccc4c3=O)CC2)cc1 | inconclusive: 5.01 µM [inhibitor, full curve]
Cc1ccccc1/C=C/C1=NCCN1 | active: 20 µM
Cc1ccc2[nH]c(=O)c3cc(C(=O)N(CCCOC(C)C)Cc4ccco4)sc3c2c1 | inconclusive: 28.2 µM [inhibitor, partial curve]
COc1ccc(Cl)cc1NC(=O)CSc1nnc2[nH]c(=O)cc(-c3ccccc3)n12 | inactive
C(=N/N1CCN(c2ccccc2)CC1)/c1ccncc1 | inconclusive: 89.1 µM [inhibitor, single point]
C=CCc1ccccc1OCC(=O)N/N=C/c1ccc(OC(C)=O)cc1OC(C)=O | inactive
CC(=NNc1nc2ccccc2s1)c1ncccn1 | active: 44.7 µM
C=Cc1ccc(Cn2c(C)c(CNCc3ccc(SC)cc3)c(C(=O)O)c2C)cc1 | inconclusive: 50.1 µM [inhibitor, partial curve]
COC(=O)[C@H](CC(C)C)NC(=O)Cn1cnc2c(OCc3ccccc3)ncnc21 | inactive
Cc1ccc(CSCC(=O)N2CCOCC2)cc1 | inconclusive: 3.16 µM [inhibitor, single point]
COC(=O)C1C(=O)C2=C(CC1C)NC(C)=C(C(=O)OC1CCCCC1)C2c1ccc(N(C)C)cc1 (stereo not given) | inconclusive: 14.1 µM [inhibitor, partial curve]
CSc1nc2ccc(NC(=O)C3=NN(c4ccccc4)C(=O)CC3)cc2s1 | inconclusive: 44.7 µM [inhibitor, full curve, poor fit]
CN1CCN(C2=C(Cl)C(=O)N(c3cccc(Cl)c3)C2=O)CC1 | active: 17.8 µM
CCn1c(CNC(=O)c2ccccc2F)cc2ccccc21 | inconclusive: 3.55 µM [inhibitor, single point]
COc1ccccc1NC(=O)CSc1nc2c(oc3ccccc32)c(=O)n1-c1ccccc1F | inactive

Structure (SMILES) | Potency
CCOc1ccc2nc(NC(=S)N(C)C)sc2c1 | active: 12.6 µM
Cc1ccc(SCC(CC(C)C)N2CCN(CCc3ccccc3)CCC2=O)cc1 (stereo not given) | inconclusive: 35.5 µM [inhibitor, partial curve]
COc1ccc(NC2=C(Cl)C(=O)N(CCc3ccccc3)C2=O)cc1 | inconclusive: 11.2 µM [inhibitor, partial curve]
CN1CCN(S(=O)(=O)c2cccc(C(=O)Nc3sc4c(c3C(N)=O)CCCC4)c2)CC1 | inactive
Cc1cc2nc(CCN(Cc3cccnc3)C(=S)Nc3ccccc3)[nH]c2cc1C | inconclusive: 63.1 µM [inhibitor, partial curve, poor fit]
CSc1ccc(CNC(=O)c2ccc(NC(=O)C3=CSCCO3)cc2)cc1 | inconclusive: 79.4 µM [inhibitor, single point]
C/C(=N\NC(=O)COc1ccc(C(C)(C)C)cc1)c1ccc2c(c1)OCCO2 | inconclusive: 56.2 µM [inhibitor, partial curve, poor fit]
CCN1C(=S)N[C@@H](c2ccccc2)C(C(=O)OC)=C1C | inactive
Cc1nn(C(C)C(=O)N/N=C/c2ccc(N(C)C)cc2)c(C)c1[N+](=O)[O-] (stereo not given) | inconclusive: 56.2 µM [inhibitor, partial curve, poor fit]
COc1cccc(/C(O)=C2/C(=O)C(=O)N(c3cc(C)on3)C2c2cccs2)c1 (stereo not given) | inconclusive: 79.4 µM [inhibitor, single point]
CCc1ccc(CNC(=O)c2cc3c(s2)-c2ccccc2OC3)cc1 | inactive
CC(C)N(C(=O)[C@H]1C[C@H](CC(=O)NCCN2CCOCC2)C(=O)N2CCc3c([nH]c4cc(-c5ccco5)ccc34)[C@]12C)C(C)C | inconclusive: 63.1 µM [inhibitor, partial curve]
O=S(=O)(NCc1ccco1)c1ccc(S(=O)(=O)N2CCCC2)cc1 | inactive
N#Cc1c(-c2cccs2)nc(SCc2ccc(Cl)cc2)[nH]c1=O | inconclusive: 50.1 µM [inhibitor, partial curve, poor fit]
COc1cc(C=C2C(=O)OC(C)(C)OC2=O)cc(Cl)c1OCC(=O)Nc1ccccc1 | inconclusive: 70.8 µM [inhibitor, single point]
O=C(Nc1ccccc1)C1CCN(C(=O)c2ccc([N+](=O)[O-])cc2)CC1 | inactive
Cc1[nH]c2ccccc2c1C1(O)C(=O)N(Cc2ccc(Cl)cc2)c2ccccc21 (stereo not given) | inconclusive: 35.5 µM [inhibitor, partial curve]
Cc1ccc(-c2cc(C(=O)NCCCn3ccnc3)c3cc(Br)ccc3n2)o1 | active: 79.4 µM
CCN(CC)CCCNC(=O)CNC(=O)c1nn(-c2ccc(OC)cc2)c(=O)c2ccccc12 | inconclusive: 22.4 µM [inhibitor, partial curve, poor fit]
Nc1cccc(S(=O)(=O)N2CCCN(S(=O)(=O)c3ccc4c(c3)OCCO4)CC2)c1 | inconclusive: 79.4 µM [inhibitor, partial curve]
Cc1cc(C)nc(SCC(=O)NNS(=O)(=O)c2ccc(C#N)cc2)n1 | active: 44.7 µM
COc1ccc(CC(=O)Nc2sc3c(c2C(=O)Nc2ccc(C)cc2)CCCCC3)cc1 | active: 56.2 µM
